Experiment [1] relates to M. hyopneumoniae. The experiment is described as follows: Development of resistance (habituation study), MIC before and after passages. It counts as cell-based, Mycoplasma hyopneumoniae. The conditions noted are these: for MIC: Mesomycoplasma hyopneumoniae. How it is done: Mycoplasma hyopneumoniae reference strain NCTC 10110 (obtained from the National Collection of Type Cultures, London, UK) and a recent field isolate (MEVT G23), are grown aerobically at 36° C. in Mycoplasma glucose broth containing phenol red until an acid colour change occurs. After addition of sterile glycerol (5% v/v) the cultures are dispensed in 1 ml aliquots and frozen at -70° C. These cultures are used to initiate further broth cultures which are titrated to obtain the number of colour changing units (ccu) in microtitre plates after incubation (36° C.). Replication allows challenge of antibiotic dilutions with predetermined numbers of ccu in minimal inhibitory concentration (MIC) tests and in the primary passage in habituation studies.
A commercially available medium (Mycopiasma Experience Ltd.) containing glucose and phenol red (MEGB) is used at pH 7.6.
Stock test compound solutions are prepared at 1000 μg/ml in deionized water. After vortexing, the solutions are sterilized by filtration through 0.2μ pore size membrane filters (Sartorius Minisart, N). For use in the MIC tests the stock solutions are diluted in mycoplasma broth to double the final concentrations required. In habituation studies the stock solutions are dispensed in 1 ml aliquots and frozen at -20° C. These are thawed and used at 5 day-7 day intervals to prepare ranges of concentrations of drug (doubling series) in MEGB, in 1.9 ml aliquots, covering the MICs against both strains of M. hyopneumoniae. Oxytetracycline hydrochloride is prepared fresh on each occasion. The dilution ranges are gradually changed from passage to passage to allow for the development of resistance in the mycoplasmas.
MIC tests are carried out by the method of Tanner & Wu, Avian Diseases 36 (1992) 714-717 before carrying out the habituation study (below) and after the 10th passages 0.1 ml aliquots of the compound dilution are mixed with 0.1 ml aliquots of the challenge inocula, containing between 10^3 and 10^5 colour changing units (ccu) per ml, in microtitre wells. Each microtitre plate contains uninoculated medium, medium at pH 6.8 (end-point-control) and drug-free inoculated challenge controls. All plates are sealed and incubated aerobically at 36° C. MICs are recorded when the colour change in the challenge control wells match the pH 6.8 control (orange-yellow). The MIC is the lowest concentration to show no colour change.
Habituation study: In the primary passage experiment, 1.9 ml volumes of antibiotic solutions at concentrations covering the MIC of the M. hyopneumoniae strain under test, are inoculated with 0.1 ml of broth culture containing between 10^3 ccu/ml to 10^5 ccu/ml. A growth control consisting of drug-free broth inoculated with M. hyopneumoniae and an uninoculated medium control are included in each passage experiment. After 7 days incubation (36° C.) the two highest concentrations of drug-containing broth showing an acid colour change are pooled and used to inoculate a fresh series of drug dilutions in mycoplasma broth (0.1 ml culture into 1.9 ml drug-containing broth). This process is repeated every 5-7 days for up to 10 passages. When the mycoplasma strains become resistant to particular antibiotics, or at the 10th passage, each strain is grown once more in drug-containing broth and the MICs determined.

Experiment [2] deals with M. hyopneumoniae. The experiment is described as follows: MIC, liquid medium, field isolates and type strain J of M. hyopneumoniae. The class given is cell-based, Mycoplasma hyopneumoniae. As to conditions: Mesomycoplasma hyopneumoniae. How it is done: Ten field isolates from outbreaks of enzootic pneumonia in different herds and the type strain "J" are included in the test. […] The test for minimal inhibitory concentration (MIC) is performed in liquid medium ([…]. et al., Acta Vet. […] The mycoplasmas are inoculated in 10 fold dilutions, and the cultures read visually for growth using tubes seeded with 10^2 to 10^4 colour forming units. […] MIC is determined as the lowest concentration of test compound showing inhibition of growth compared to control ([…]. and Szancer, J., Acta Vet. Scand. 35 [1994] 389-394).

The subject of a further experiment is Mycoplasma gallisepticum. The experiment is described as follows: MIC, serial microdilution, Mycoplasma gallisepticum reference strains. The class given is cell-based. The conditions noted are these: Mycoplasmoides gallisepticum, read-out: MIC. How it is done: (§1) The antimicrobial effect of vainemulin hydrochloride is determined by means of a standard serial microdilution technique in comparison to tylosin (Tylan soluble) and tiamulin hydrogen fumarate.
(§2) 12.8 mg of the test compound are dissolved in 100 ml of distilled water to obtain a stock solution which is stored at -20° C. until used. Mycoplasma gallisepticum reference strain used are X95, S6 Holland, S6 Bench (England), MS-16 (Japan), MK-7 (Japan) and 1226, and various fresh field isolates.
(§3) The antibiotic-sensitivity of the strains is examined using a modified microbroth dilution procedure (Stipkovits et al., Vet. Microbiol. 15 [1987] 65-70). Testing medium is added (100 μl) to all the wells of microtitration plates, using doubling dilutions of antibiotics. The inoculum (100 μl) contains 10^5 cfu/ml. The plates are sealed with sellotape and incubated at 37° C. over a period of 3 days. The lowest concentration of the antibiotic completely preventing colour change of the media at the third day reading is the minimal inhibitory concentration (MIC). The wells without colour range are checked for viability of mycoplasmas by plating them on agar medium. All Mycoplasma strains are propagated in 10 ml of medium B (Ern.o slashed., H. and Stipkovits, L., Acta Vet. Scand. 14 [1973] 436-449). After incubation at 37° C. until early log phase of growth, 1 ml aliquots of culture are dispensed in tubes as seed cultures and stored at -20° C. The glucose fermenting Mycoplasma strains are tested in modified medium Bg supplemented with 1% glucose (pH 7.8), the arginine hydrolysing strains in medium Ba (Ern.o slashed., H. and Stipkovits, L., supra, 450-463) containing 1% arginine (pH 7.3) and the glucose- and arginine-negative strains in medium B including 1% triphenyltetrazolium chloride.
(§4) The average MIC values for different strain groups and antibiotics taking into consideration dilutions are calculated.
A general note: In broth dilution the organism is exposed to a series of concentrations in liquid medium.

For experiment [3], the system named is M. hyopneumoniae. As to the kind of experiment: MIC, microtitre broth, ten field isolates and type strain J of M. hyopneumoniae. It counts as cell-based, Mycoplasma hyopneumoniae. The conditions noted are these: Mesomycoplasma hyopneumoniae. The text has this:
Tissue samples are obtained from the lungs of pigs from various enzootic pneumonia of pigs (EPP)-affected herds. Samples are shipped on dry ice for culture. M. hyopneumoniae is recovered from freshly sectioned lung tissue by direct culture onto Mycoplasma Experience agar. This technique allows the distinctive colonies of M. hyopneumoniae to be recognised and readily separated, by cloning from other faster growing mycoplasma species such as Mycoplasma hyorhinis, often present in EPP lung samples. Isolates are subcultured and identified by disc growth inhibition using specific rabbit antiserum raised to M. hyopneumoniae NCTC 10110.
Cultures for antibiotic challenge are prepared in Mycoplasma Experience broth, incubated aerobically at 36° C.
A commercially available solid medium (Mycoplasma Experience Ltd.) is used to isolate M. hyopneumoniae from lung tissue. A liquid medium (Mycoplasma Experience Ltd.) containing phenol red and glucose (pH 7.6) is used for the MIC assays.
Stock solutions of test compound are prepared at 1 mg/ml concentration in deionised water, sterilised by filtration through 0.2μ pore size membrane filters (Sartorius Minisart, N) and stored at -20° C. For use in the MIC tests the stock solutions are diluted in liquid medium to double the final concentrations required. MIC tests are carried out according to the method of Tanner & Wu, Avian Diseases 36 (1992) 714-717. Actively growing challenge cultures are prepared either from 1 ml aliquots of broth cultures stored at -70° C. or from cultures stored on agar at -70° C. The challenge cultures are diluted to give a target titre of 10^3 to 10^5 colour changing units/ml. 0.1 ml aliquots of challenge inocula are mixed with 0.1 ml aliquots of antibiotic dilution in microtitre wells. Each microtitre plate contains uninoculated media at pH 6.8 (M. hyopneumoniae) (end point control) and antibiotic-free inoculated challenge controls. All plates are sealed with adhesive film and incubated aerobically at 36° C. MICs are recorded when the colour change in the challenge control wells match the pH of the end point control. The MIC is the lowest concentration showing no colour change.

Experiment [4] deals with mycoplasma isolates of chicken origin. As to the kind of experiment: MIC, serial microdilution, mycoplasma isolates of chicken origin. It counts as cell-based. How it is done: as §1, §2, §3, §4
[5] abbreviates: NCTC10110, read-out: Pre-passage MIC.

Counter-ions that a name gives are not always drawn. Like-named read-outs stand apart in the source and are kept apart here.

On to `CN(C)C1C(=O)C(C(N)=O)=C(O)C2(O)C(=O)C3=C(O)c4c(O)cccc4C(C)(O)C3C(O)C12` (stereo not drawn) [Oxytetracycline hydrochloride], for which the MIC amounted to 1 µg/mL in the experiment on M. hyopneumoniae [1] (NCTC10110, read-out: Post-passage MIC up to P10/P11); 0.25 µg/mL with M. hyopneumoniae [1] (setting [5]); 1 µg/mL in the experiment with M. hyopneumoniae [1] (read-out: Post-passage MIC up to P10/P11); 0.25 µg/mL in the experiment on M. hyopneumoniae [1] (read-out: Pre-passage MIC). Besides, the “Post-passage MIC up to P10/P11” value with M. hyopneumoniae [1] (NCTC 10110) and with M. hyopneumoniae [1] (field isolate) was 1 µg/mL in each case. For the same compound, the Resistance increase in the experiment on M. hyopneumoniae [1] (NCTC 10110, up to P10/P11) worked out at 4 fold; in the experiment with M. hyopneumoniae [1] (field isolate, up to P10/P11) it was 4 fold.

Consider `CCC1OC(=O)CC(O)C(C)C(OC2OC(C)C(OC3CC(C)(O)C(O)C(C)O3)C(N(C)C)C2O)C(CC=O)CC(C)C(=O)C=CC(C)=CC1COC1OC(C)C(O)C(OC)C1OC` (stereo not drawn) [Tylosin tartrate], for which the “resistance development in words” value in the experiment on M. hyopneumoniae [1] (M. hyopneumoniae strains, in vitro passages) is given as “marked resistance developed”. The MIC with M. hyopneumoniae [1] (NCTC10110, read-out: Post-passage MIC) was > 500 µg/mL; in the experiment with M. hyopneumoniae [1] (setting [5]) it was 0.25 µg/mL; in the experiment on M. hyopneumoniae [1] (read-out: Post-passage MIC), 62.5 µg/mL; with M. hyopneumoniae [1] (read-out: Pre-passage MIC), 0.125 µg/mL. Besides, the Resistance increase in the experiment on M. hyopneumoniae [1] (NCTC 10110, after 8 passages) is > 2000 fold; with M. hyopneumoniae [1] (field isolate, after 8 passages), 500 fold. Moreover, in the experiment with M. hyopneumoniae [1] (field isolate), the “passages within which marked resistance developed” value is ≤ 8 passages.

With `C=C[C@]1(C)C[C@@H](OC(=O)CSCCN(CC)CC)[C@]2(C)[C@H](C)CC[C@]3(CCC(=O)[C@H]32)[C@@H](C)[C@@H]1O` [tiamulin hydrogen fumarate], the MIC stood at 0.05 µg/mL in the experiment with M. hyopneumoniae [2] (final reading 10-14 days, Table 1 line 1 (1 strain), read-out: MIC final); 0.1 µg/mL in the experiment with M. hyopneumoniae [2] (final reading 10-14 days, Table 1 line 2 (1 strain), read-out: MIC final); 0.1 µg/mL in the experiment with M. hyopneumoniae [2] (final reading 10-14 days, Table 1 line 3 (3 strains), read-out: MIC final); 0.1 µg/mL in the experiment on M. hyopneumoniae [2] (final reading 10-14 days, Table 1 line 4 (5 strains, comprises type strain), read-out: MIC final); 0.1 µg/mL in the experiment with M. hyopneumoniae [2] (final reading 10-14 days, Table 1 line 5 (1 strain), read-out: MIC final); 0.025 µg/mL in the experiment with M. hyopneumoniae [2] (initial reading 2-4 days, Table 1 line 1 (1 strain), read-out: MIC initial). The MIC in the experiment on M. hyopneumoniae [2] (initial reading 2-4 days, Table 1 line 2 (1 strain), read-out: MIC initial) was determined as 0.025 µg/mL; in the experiment with M. hyopneumoniae [2] (initial reading 2-4 days, Table 1 line 3 (3 strains), read-out: MIC initial), 0.05 µg/mL; with M. hyopneumoniae [2] (initial reading 2-4 days, Table 1 line 4 (5 strains, comprises type strain), read-out: MIC initial), 0.05 µg/mL; with M. hyopneumoniae [2] (initial reading 2-4 days, Table 1 line 5 (1 strain), read-out: MIC initial) it was 0.1 µg/mL; with Mycoplasma gallisepticum (strain 1226), 0.25 µg/mL; in the experiment with Mycoplasma gallisepticum (strain Bench) it was 0.0312 µg/mL. Also, the MIC with Mycoplasma gallisepticum (strain Holland) is 0.0312 µg/mL; with Mycoplasma gallisepticum (strain MK-7), 0.0312 µg/mL; in the experiment with Mycoplasma gallisepticum (strain MS-16), 0.0312 µg/mL; in the experiment on M. hyopneumoniae [3] (NCTC10110, Type Strain J (NCTC 10110), read-out: MIC), 0.1 µg/mL; in the experiment on M. hyopneumoniae [3] (field strains (n = 10), read-out: MIC range), 0.01 to 0.05 µg/mL; in experiment [4] (isolate 20002, read-out: MIC), 0.25 µg/mL. For the same compound, the MIC in experiment [4] (isolate 20174, read-out: MIC) was found to be 0.25 µg/mL; in experiment [4] (isolate 20175, read-out: MIC), 0.5 µg/mL; in experiment [4] (isolate 20176, read-out: MIC), 0.25 µg/mL; in experiment [4] (isolate 20177, read-out: MIC), 0.25 µg/mL; in experiment [4] (isolate 20178, read-out: MIC) it was 0.5 µg/mL; in experiment [4] (isolate 20224, read-out: MIC), 1 µg/mL. Also, the MIC in experiment [4] (isolate 20312, read-out: MIC) is 0.25 µg/mL; in experiment [4] (isolate 20472, read-out: MIC) it was 1 µg/mL; in experiment [4] (isolate 20473, read-out: MIC), 0.5 µg/mL; in experiment [4] (isolate 20474, read-out: MIC), 1 µg/mL; in experiment [4] (isolate 20475, read-out: MIC), 0.5 µg/mL; in experiment [4] (read-out: MIC range (sensitivity), avian field isolates) it was 0.06 to 1 µg/mL. This compound gave an MIC50 against M. hyopneumoniae [3] (field strains (n = 10)) of 0.025 µg/mL. The MIC90 with M. hyopneumoniae [3] (field strains (n = 10)) came out at 0.05 µg/mL.

The term MIC50 denotes the lowest concentration that inhibits either 50% of growth or 50% of the strains tested, depending on the study. A lower MIC50 goes with greater potency. Broadly, the MIC90 is an inhibitory concentration at the 90% level, which refers to growth in some studies and to a panel of isolates in others. The low end stands for greater potency, the high end for weaker potency.

Source of the values: patent US6130250A, “Veterinary use of a pleuromutilin derivative” (priority 1996, dated 2000).
